Experimental data published in PubChem BioAssay AID686978 (National Center for Advancing Translational Sciences (NCATS), 2013).
Several values for one entry are separate records, joined by “and”; a condition that tells them apart may be missing. Identical values can stand only once. Among all 420,000 compounds or so, about 64,000 (15%) were called active. The shares of active, inactive and inconclusive entries below differ from those in the screen. Calls follow the shape of the dose curve; as a rule, active = well fitted inhibition curve with a large enough effect; inconclusive = small, poorly fitted or top-dose-only effect; inactive = flat fitted curve, though single readings scatter. Potencies of inconclusive entries are doubtful fits and often do not repeat.

Assay: qHTS for Inhibitors of human tyrosyl-DNA phosphodiesterase 1 (TDP1): qHTS in cells in absence of CPT; also: nearly all actives have a fitted effect of over 55% in size
Settings: DT40 Tdp1-/- hTDP1 cells, no CPT, ATP luminescence, 48 h; activity change, negative = growth inhibition: at 46.2 µM (top of the series) unless noted
Method in brief: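 Seeded 400 DT40-hTDP1 cells/well (vehicle DMSO, no 20 nM CPT); pinned compounds; ≥48 hr at 37 °C; CellTiter-Glo luminescence as viability measure.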
% is scaled to controls: 0 for no effect and ±100 for the full control effect; potency is read from the fitted curve at half-maximal effect; tags tell the direction and shape of the fitted curve.

Structure (SMILES) | Potency | activity change, negative = growth inhibition
COc1ccc(CC2(CO)CCN(S(=O)(=O)c3c(C)nn(C)c3C)CC2)cc1 | inconclusive: 20.6 µM [inhibitor, single point] | –
C/C(O)=C(\C#N)c1nnc2n1CCCCC2 | inactive | –
O=C(COC(=O)c1ccc2c(c1[N+](=O)[O-])C(=O)c1ccccc1C2=O)NC1CC1 | inconclusive: 25.9 µM [inhibitor, single point] | –
CCCCn1c(=S)[nH]c2cc(S(=O)(=O)N3CCCCC3)ccc21 | inconclusive: 29.1 µM [inhibitor, single point] | –
O=C(CN1CCC(NC(=O)Nc2ccc(F)cc2)CC1)Nc1ccccc1[N+](=O)[O-] | active: 20.6 µM | –
COc1ccccc1N(C)S(=O)(=O)c1ccc(C(=O)N(CC(N)=O)C(C)C)cc1 | inconclusive: 23.1 µM [inhibitor, single point] | –
Cc1nonc1C(=O)N1CCCC(N2CCN(c3ccc(F)cc3)CC2)C1 (centres undefined) | – | inconclusive: -30.7% [inhibitor]
CC(C)(Oc1ccc(C2CCCc3ccccc32)cc1)C(=O)O (centres undefined) | inactive | –
COc1ccc(Oc2c(C=O)c3ccccc3n2C)cc1 | inconclusive: 20.6 µM [inhibitor, single point] | –
Cc1cccc(C)c1OCC(=O)Nc1nonc1-c1ccc(Br)cc1 | inconclusive: 29.1 µM [inhibitor, single point] | –
O=[N+]([O-])c1cccc(-c2noc(-c3cccs3)n2)c1 | inactive | –
COc1ccc(CCNC(=O)Cc2c(C)c3cc(OC)c(OC)cc3oc2=O)cc1 | inactive | –
Fc1ccc2c(c1)c1n[nH]c(=S)nc1n2CCc1ccccc1 | inconclusive: 10.3 µM [inhibitor, partial curve] | –
Cc1ccc(-c2nc(CS(=O)(=O)CC(=O)NCc3cccc(F)c3)c(C)o2)cc1 | inconclusive: 29.1 µM [inhibitor, single point] | –
Cn1ccc2cc(OCc3ccccc3)ccc21 | inactive | –
CC(=O)Nc1nc2nc(-c3ccccc3)cc(-c3ccccc3)n2n1 | inconclusive: 32.6 µM [inhibitor, partial curve, poor fit] | –
Cn1c(=O)c(Cc2ccccc2)c(O)c2ccccc21 | inactive | –
c1ccc(Nc2nc(CSc3ncn[nH]3)cs2)cc1 | inconclusive: 16.4 µM [inhibitor, partial curve] | –
COc1ccc(CC2(CO)CCN(C(C)Cc3ccc(Cl)cc3)CC2)cc1 (centres undefined) | inconclusive: 29.1 µM [inhibitor, single point] | –
COc1ccc(C(=O)CSc2nn3c(=O)c(C(C)(C)C)nnc3s2)cc1 | inconclusive: 29.1 µM [inhibitor, single point] | –
CN(C)S(=O)(=O)c1cccc(NC(=S)NC23CC4CC(CC(C4)C2)C3)c1 | inconclusive: 16.4 µM [inhibitor, single point] | –
COC(=O)N1CCC2(CCCN(c3cccc(-c4ccccc4)c3)C2)CC1 | inconclusive: 32.6 µM [inhibitor, single point] | –

Structure (SMILES) | Potency | activity change, negative = growth inhibition
CSCC[C@H](NC(=O)[C@H]1CC[C@H](CNC(=O)[C@@H](N)Cc2ccccc2)CC1)C(=O)O | inactive | –
CCOc1ccc2oc(=O)cc(CN3CCN(c4ccc(OC)cc4)CC3)c2c1 | active: 20.6 µM | –
O=c1c2ccccc2c(=O)n(-c2ccccc2)n1CCCCBr | inconclusive: 23.1 µM [inhibitor, single point] | –
COc1ccc(Nc2nc(-c3ccccc3)c(C(=O)Nc3cccnc3)s2)cc1 | – | inconclusive: -33.4% [inhibitor]
COc1ccc(/C=C2/CCCC(CN(C)C)C2=O)cc1 (centres undefined) | active: 0.58 µM | –
CCOc1cc(S(=O)(=O)n2cc(-c3ccc(F)cc3)c(N)n2)cc(OCC)c1OCC | active: 13 µM | –
CCN(C(=O)CCS(=O)(=O)c1cccc2nsnc12)c1cccc(C)c1 | inconclusive: 29.1 µM [inhibitor, single point] and inconclusive: 25.9 µM [inhibitor, single point] | –
Cc1ccc(-c2nnn(CC(=O)N(Cc3cccs3)C(C(=O)NC(C)(C)C)c3ccc(C)o3)n2)o1 (centres undefined) | inconclusive: 18.4 µM [inhibitor, single point] | –
CC1=C(C(=O)OC2CCCCCCC2)C(c2ccc(O)cc2)NC(=O)N1 (centres undefined) | inconclusive: 13 µM [inhibitor, partial curve] | –
OC1c2cc(Cl)cc(Cl)c2N=C2CCCN21 (centres undefined) | inactive | –
O=C(Nc1nc2n(n1)C(c1ccc(F)cc1)C=C(c1ccc(Cl)cc1)N2)c1ccco1 (centres undefined) | inconclusive: 16.4 µM [inhibitor, single point] | –
Cc1noc(C)c1COc1ccc(C(=O)NCC(c2c(F)cccc2Cl)N(C)C)cc1 (centres undefined) | inconclusive: 29.1 µM [inhibitor, single point] | –
Cc1cc(=O)oc2ccc(OCC(=O)N(Cc3ccc(F)cc3)Cc3ccco3)cc12 | inconclusive: 29.1 µM [inhibitor, single point] | –
Cc1cc(S(=O)(=O)Nc2cc3c(cc2N2CCOCC2)n(C)c(=O)n3C)ccc1F | active: 9.2 µM | –
COc1ccc(/C=C/C(=O)NC(=S)Nc2cc3oc4ccccc4c3cc2OC)cc1 | inconclusive: 3.66 µM [inhibitor, partial curve] | –
Cn1cccc1C(=O)N1CCC[C@@]2(CCN(c3ncccn3)C2)C1 | inactive | –
COc1ccc(NC(=O)C(CC(C)C)NC(=O)C2CCCCC2)c(OC)c1 (centres undefined) | inconclusive: 25.9 µM [inhibitor, single point] | –
O=C(NNC(=O)C(c1ccccc1)c1ccccc1)c1cccs1 | inactive | –
Cc1noc(C)c1CSc1nc2ccccc2n1CCc1ccccc1 | inconclusive: 20.6 µM [inhibitor, partial curve] | –
CCc1nc2ccc(C(=O)NCCc3ccc(SC)cc3)cc2nc1CC | inconclusive: 25.9 µM [inhibitor, single point] | –
CCOC(=O)c1cc(NC(=O)c2ccc(Cl)cc2)c(=O)oc1-c1ccccc1 | inconclusive: 29.1 µM [inhibitor, single point] | –
CCOc1ccc(S(=O)(=O)N2CCC(C(=O)NCc3ccncc3)CC2)cc1Cl | inactive | –
